Experimental data: patent US9320760B2, “Compositions and methods of use of compounds to increase cancer patient survival time” (BioNumerik Pharmaceuticals, Inc., priority 2008, dated 2016)

Target: T1, thioredoxin/thioredoxin reductase (Bos taurus, UniProt O97680)
T1 sequence (O97680 1-105): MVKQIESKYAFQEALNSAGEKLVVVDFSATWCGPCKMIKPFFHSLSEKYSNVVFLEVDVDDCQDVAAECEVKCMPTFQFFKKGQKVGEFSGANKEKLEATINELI
Settings: result in words

## O=S(=O)([O-])CCSSCCS(=O)(=O)[O-].[Na+].[Na+] [Tavocept™, disodium 2,2′-dithio-bis-ethane sulfonate]
  inhibition of TX/TXR catalyzed reduction of the insulin A-B chain disulfide bond: inhibits
